Measured values taken from the supplement of paper PMC3334620.
Over roughly 33,000 sequences, “E-score (-0.5 to 0.5)” has its median near -0.043; the highest 2% begin near 0.37. The list shows a part of the results.

Each sequence was assayed against T1, Upc2 (UniProt Q12151) (assay: PBM E-score (8-mer binding enrichment) (E-score (-0.5 to 0.5)); higher = stronger / more preferred TF binding; most listed sequences are background and not binding sites). Details: protein concentration: 200 nM; construct: GST-full length.
T1 sequence: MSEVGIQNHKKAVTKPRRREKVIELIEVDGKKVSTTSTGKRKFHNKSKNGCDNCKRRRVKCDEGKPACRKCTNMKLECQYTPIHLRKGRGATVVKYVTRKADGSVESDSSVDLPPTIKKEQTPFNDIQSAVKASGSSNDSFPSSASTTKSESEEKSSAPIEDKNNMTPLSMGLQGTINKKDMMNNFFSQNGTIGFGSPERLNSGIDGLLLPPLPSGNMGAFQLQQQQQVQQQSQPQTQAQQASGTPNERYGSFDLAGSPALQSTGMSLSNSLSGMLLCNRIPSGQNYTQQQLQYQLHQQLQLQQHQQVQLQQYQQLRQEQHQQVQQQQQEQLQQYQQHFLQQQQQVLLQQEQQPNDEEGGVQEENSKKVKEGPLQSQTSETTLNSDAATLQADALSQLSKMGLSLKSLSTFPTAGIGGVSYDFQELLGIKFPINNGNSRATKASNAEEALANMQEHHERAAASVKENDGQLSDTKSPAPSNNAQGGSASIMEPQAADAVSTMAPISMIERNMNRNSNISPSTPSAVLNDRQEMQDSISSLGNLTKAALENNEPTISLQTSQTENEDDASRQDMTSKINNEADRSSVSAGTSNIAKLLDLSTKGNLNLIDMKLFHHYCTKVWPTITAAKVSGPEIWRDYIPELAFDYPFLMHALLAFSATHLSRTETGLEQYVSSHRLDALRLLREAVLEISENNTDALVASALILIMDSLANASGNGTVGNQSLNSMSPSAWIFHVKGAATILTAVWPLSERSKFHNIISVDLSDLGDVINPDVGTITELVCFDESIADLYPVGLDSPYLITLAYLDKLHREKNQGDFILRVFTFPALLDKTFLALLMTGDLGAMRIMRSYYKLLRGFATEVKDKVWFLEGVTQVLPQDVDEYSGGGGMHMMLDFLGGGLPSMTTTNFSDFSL
Procedure: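 Universal 'all 10-mer' protein binding microarrays (Agilent AMADID 015681) probed with GST-tagged S. cerevisiae TFs (full-length or DBD) made by in vitro transcription/translation (PURExpress), about 100-200 nM. Bound TF was detected with fluorescent anti-GST. Each ungapped 8-mer (which stands for itself and its reverse complement) is scored by the PBM enrichment score (E-score), a modified Wilcoxon-Mann-Whitney statistic from -0.5 to +0.5, computed with the Universal PBM Analysis Suite. Scale: above 0.35 generally sequence-specific binding.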

Sequence | PBM E-score
CTATTGAG | -0.135
CTGGTCCC | -0.271
CCAACGAG | 0.091
AACTATTA | 0.0272
ACTTAATG | 0.19
ATATTATG | -0.00531
GTCGCTAA | 0.271
ATATGCAA | -0.0189
TTTCGAAA | 0.161
AGGTACTG | -0.108
GGGACCAC | -0.24
ATTAGACA | -0.139
ACGGAGAT | 0.0291
AGCCGATG | -0.0627
AAATTAAC | 0.00077
CACACCTA | 0.0891
CGGGGCCA | -0.00898
ACTGGCAT | -0.227
CAATTATG | 0.00554
ACGCATAT | 0.124
CCTCGTTC | 0.46
TATTACGA | 0.364
ATATTGAT | 0.007
ATCAAACA | -0.167
AATCCCAA | -0.0579

Sequence | PBM E-score
ACGCATCT | -0.0343
GCATGTCC | -0.21
CAGTCGCA | 0.077
TGTAGACA | -0.0876
CATGATAA | 0.0845
CGGCTCAG | 0.0248
CTGTTCTA | -0.233
ACGCATAG | 0.269
CTCGGAAC | 0.248
ATCGTGTA | 0.279
CTGCCACC | -0.262
ACAAGCGC | 0.0528
ACCGAATC | 0.197
ACAAGAAT | -0.215
CAGAGCAG | -0.14
ACGGCCCG | 0.219
AATTGTAC | 0.296
CAACATAC | 0.259
GAGTGCGA | 0.0252
CTTAAGCC | -0.122
ACTTCACA | -0.0551
CCCAACGC | -0.156
CTGGGAAC | 0.0868
ACTTTGGA | 0.00092
GGTTTAAC | 0.138

Sequence | PBM E-score
GCATCCAC | -0.117
ACTCTCTC | -0.122
ATGCGTTG | -0.0232
ACTGTTTG | 0.0144
AGTATACA | 0.149
GACTTAAA | 0.158
ACACTTCT | -0.0252
AGGGCGGC | -0.192
ATTGATAG | -0.101
CCATATAC | 0.306
CAGCAGTC | -6e-05
ATATAACA | 0.09
CTATGAAA | -0.198
TACAACAA | 0.148
CGCTGAGA | -0.169
TGCGTACA | 0.318
ACTGTCCG | 0.148
CTGTGGTA | -0.0139
AACCTTAC | 0.0867
GCCAGAAA | -0.0776
GTTCATAA | 0.0195
GTCTGTTA | -0.00123
AATCTACC | -0.0212
GACACCTA | -0.118
CAGGTTCA | -0.195

Sequence | PBM E-score
CTGGACTA | -0.326
CCAAGGAG | -0.335
CGTGTGAA | 0.113
GCGATCTA | 0.0291
ATCGAGAC | 0.136
AGCCATAT | 0.0338
ATCGTGCA | 0.0793
AATGGTTA | -0.116
CCACGCCG | -0.0532
ACGTACTC | 0.29
CCCTATAA | -0.00945
TCCATAAA | -0.102
CGATCCTC | 0.149
CTCTGGTC | -0.299
AAGGCAGA | -0.143
GTCTCCAC | -0.174
GATCCAGA | 0.0551
CAGCGATA | 0.0549
AGATAATC | -0.0843
GACACAGA | -0.18
CAGCCTAA | -0.0736
AAGGGACT | -0.322
AAGACTAT | -0.0464
AAGATTCA | -0.144
CCAACTAC | -0.0639

Sequence | PBM E-score
CCGCTCAG | -0.0425
CCATCGAG | 0.0899
TATTAATA | 0.131
CTCCTCGA | -0.024
ACGGACAC | 0.11
CAACACGG | -0.0862
CTTCGCGC | 0.0794
ACTCTTAC | 0.173
AAGTGTAG | -0.281
CGGTCCGA | 0.131
TAGAAAGA | -0.0972
AATAGGAG | -0.29
GACGCAGC | -0.187
AATTGAAG | -0.132
AGAAGCGC | -0.146
ACTAGGAG | -0.385
AATAAGTA | 0.0339
AGATTTGA | -0.0863
GCGCCCTA | -0.0195
ATCTTTCA | -0.0489
AGTCTTGC | -0.144
GGGGTTCA | -0.0912
AGTCCAAC | -0.228
ACAAGCAC | -0.0434
GTGTACGA | 0.479

Sequence | PBM E-score
AAAAAGTG | -0.0116
CCGGTCGC | 0.111
GCCCAGAC | -0.199
CCTGAAAA | -0.0964
ATAGTGAT | 0.144
CTGGTTCA | -0.124
AAGCCCTT | -0.212
CATACCCA | -0.0148
AGGGGACG | -0.158
GCCGTGGA | -0.0179
CGACACTA | 0.0796
AGAACAAC | -0.106
CATTTATA | 0.041
AGGGTTGA | 0.0209
AAATCCTT | -0.0627
CACCGGTC | -0.252
CAGTAGGA | -0.212
TACCGGCA | 0.0135
ATAACAGA | -0.0135
ACCGACTG | 0.118
AACAAAAC | 0.0702
CACACGCG | 0.0196
CCGGACGA | -0.275
CCTTCAGA | -0.107
AGACCGGG | -0.166

Sequence | PBM E-score
CCCGGGCA | -0.169
CTCGAATC | -0.159
AGCGCTAG | -0.142
CTACCTCA | -0.167
CATGTCCG | -0.124
ACGCAAGG | 0.0892
CTACATTA | -0.0241
CACAAACA | -0.0461
AGAACACC | -0.039
CCATTAGA | -0.236
ATCTAATG | -0.0249
ACACAAGA | -0.176
GAGATTCC | -0.119
AATCTTCC | -0.0871
ATGTTAGG | -0.00946
AGAAGTCT | -0.217
CCCGTTCC | 0.327
AAACTTAA | 0.05
AGTTAGGG | -0.272
ATTACGAC | 0.348
GAGTCCCA | -0.0558
AGACATGG | -0.0807
